The other results are listed elsewhere or left out. Cut-off read from the data, not from the text of the source: active = 3.2 or more and inactive = the rest. Only a few entries rise above the background.
Legend:
Assay in all cases: enrichment score (SH2-bound / input frequency) (ratio); bacterial display of known human phosphotyrosine sites (pTyr-Var adds point mutants) read by sequencing; higher = stronger binding; tyrosines were phosphorylated by kinases first
Settings in all cases: peptide library: pTyr-Var
SHP2 C-SH2 domain E139D = target: SHP2 C-SH2 domain E139D
[1] = target: SHP2 C-SH2 domain wild-type
SHP2 N-SH2 domain L43F = target: SHP2 N-SH2 domain L43F
SHP2 N-SH2 domain T42A = target: SHP2 N-SH2 domain T42A
SHP2 N-SH2 domain T52S = target: SHP2 N-SH2 domain T52S
[2] = target: SHP2 N-SH2 domain wild-type

Measured: enrichment score
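Note: displayed peptides selected on beads carrying the immobilized SH2 domain, with library peptides lacking any tyrosine serving as negative controls.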

B1: PAX5_Y73_T75R (peptide)
chain: ILGRYYERGSI
inactive: SHP2 C-SH2 domain E139D 1.36 | [1] 1.19 | SHP2 N-SH2 domain L43F 1.27 | SHP2 N-SH2 domain T42A 1.09 | SHP2 N-SH2 domain T52S 1.29 | [2] 1.42

B2: PBRM1_Y1289_E1287Q (peptide)
chain: VDDQIYYFRKP
inactive: SHP2 C-SH2 domain E139D 1.01 | [1] 0.932 | SHP2 N-SH2 domain L43F 1.06 | SHP2 N-SH2 domain T42A 0.791 | SHP2 N-SH2 domain T52S 0.927 | [2] 0.959

B3: PBRM1_Y1289_E1287Q_YF (peptide)
chain: VDDQIYFFRKP
inactive: SHP2 C-SH2 domain E139D 0.741 | [1] 0.665 | SHP2 N-SH2 domain L43F 0.661 | SHP2 N-SH2 domain T42A 0.672 | SHP2 N-SH2 domain T52S 0.652 | [2] 0.711

B4: PBRM1_Y1289_YF (peptide)
chain: VDDEIYFFRKP
inactive: SHP2 C-SH2 domain E139D 0.63 | [1] 0.719 | SHP2 N-SH2 domain L43F 0.658 | SHP2 N-SH2 domain T42A 0.913 | SHP2 N-SH2 domain T52S 0.861 | [2] 1.13

B5: PBRM1_Y1610 (peptide)
chain: LHSEAYLKYIE
inactive: SHP2 C-SH2 domain E139D 0.925 | [1] 0.825 | SHP2 N-SH2 domain L43F 0.965 | SHP2 N-SH2 domain T42A 0.73 | SHP2 N-SH2 domain T52S 0.764 | [2] 0.621

B6: PBRM1_Y1610_I1614N (peptide)
chain: LHSEAYLKYNE
inactive: SHP2 C-SH2 domain E139D 1.06 | [1] 0.687 | SHP2 N-SH2 domain L43F 0.797 | SHP2 N-SH2 domain T42A 0.683 | SHP2 N-SH2 domain T52S 0.648 | [2] 0.629

B7: PBRM1_Y1610_I1614N_YF (peptide)
chain: LHSEAYLKFNE
inactive: SHP2 C-SH2 domain E139D 1.42 | [1] 1.28 | SHP2 N-SH2 domain L43F 0.937 | SHP2 N-SH2 domain T42A 1.05 | SHP2 N-SH2 domain T52S 0.874 | [2] 0.871

B8: PBRM1_Y54 (peptide)
chain: VCHELYNTIRD
inactive: SHP2 C-SH2 domain E139D 0.962 | [1] 1.12 | SHP2 N-SH2 domain L43F 0.974 | SHP2 N-SH2 domain T42A 0.953 | SHP2 N-SH2 domain T52S 0.818 | [2] 1.03

B9: PCCA_Y143_A138T (peptide)
chain: TVHPGYGFLSE
inactive: SHP2 C-SH2 domain E139D 0.747 | [1] 0.602 | SHP2 N-SH2 domain L43F 0.664 | SHP2 N-SH2 domain T42A 0.624 | SHP2 N-SH2 domain T52S 0.693 | [2] 0.583

B10: PCCA_Y401_C398R_YF (peptide)
chain: VERRVYAEDPF
inactive: SHP2 C-SH2 domain E139D 0.634 | [1] 0.411 | SHP2 N-SH2 domain L43F 0.778 | SHP2 N-SH2 domain T42A 0.505 | SHP2 N-SH2 domain T52S 0.57 | [2] 0.701

B11: PCCA_Y401_R399Q_YF (peptide)
chain: VECQVYAEDPF
inactive: SHP2 C-SH2 domain E139D 1.11 | [1] 1.02 | SHP2 N-SH2 domain L43F 0.87 | SHP2 N-SH2 domain T42A 0.683 | SHP2 N-SH2 domain T52S 0.752 | [2] 1.43

B12: PCDH19_Y1097 (peptide)
chain: RDLEQYVNNVN
inactive: SHP2 C-SH2 domain E139D 0.732 | [1] 0.651 | SHP2 N-SH2 domain L43F 0.804 | SHP2 N-SH2 domain T42A 0.591 | SHP2 N-SH2 domain T52S 0.795 | [2] 0.748

B13: PCDH19_Y1097_L1094V (peptide)
chain: RDVEQYVNNVN
inactive: SHP2 C-SH2 domain E139D 0.75 | [1] 0.456 | SHP2 N-SH2 domain L43F 0.73 | SHP2 N-SH2 domain T42A 0.491 | SHP2 N-SH2 domain T52S 0.509 | [2] 0.765

B14: PCDHGA1_Y890 (peptide)
chain: QHVPDYRQNVY
inactive: SHP2 C-SH2 domain E139D 0.716 | [1] 0.692 | SHP2 N-SH2 domain L43F 0.732 | SHP2 N-SH2 domain T42A 0.615 | SHP2 N-SH2 domain T52S 0.709 | [2] 0.811

B15: PCDHGA1_Y890_V894G (peptide)
chain: QHVPDYRQNGY
inactive: SHP2 C-SH2 domain E139D 0.662 | [1] 0.669 | SHP2 N-SH2 domain L43F 0.664 | SHP2 N-SH2 domain T42A 0.551 | SHP2 N-SH2 domain T52S 0.576 | [2] 0.712

B16: PCDHGA1_Y890_V894G_YF (peptide)
chain: QHVPDYRQNGF
inactive: SHP2 C-SH2 domain E139D 0.713 | [1] 0.679 | SHP2 N-SH2 domain L43F 0.669 | SHP2 N-SH2 domain T42A 0.618 | SHP2 N-SH2 domain T52S 0.65 | [2] 0.769

B17: PCDHGA1_Y890_YF (peptide)
chain: QHVPDYRQNVF
inactive: SHP2 C-SH2 domain E139D 0.922 | [1] 0.802 | SHP2 N-SH2 domain L43F 0.849 | SHP2 N-SH2 domain T42A 0.689 | SHP2 N-SH2 domain T52S 0.837 | [2] 0.839

B18: PCDHGA1_Y895_V894G (peptide)
chain: YRQNGYIPGSN
inactive: SHP2 C-SH2 domain E139D 0.581 | [1] 0.545 | SHP2 N-SH2 domain L43F 0.599 | SHP2 N-SH2 domain T42A 0.501 | SHP2 N-SH2 domain T52S 0.613 | [2] 0.581

B19: PCDHGA1_Y895_V894G_YF (peptide)
chain: FRQNGYIPGSN
inactive: SHP2 C-SH2 domain E139D 0.735 | [1] 0.642 | SHP2 N-SH2 domain L43F 0.676 | SHP2 N-SH2 domain T42A 0.593 | SHP2 N-SH2 domain T52S 0.664 | [2] 0.697

B20: PCDHGA1_Y895_YF (peptide)
chain: FRQNVYIPGSN
inactive: SHP2 C-SH2 domain E139D 0.743 | [1] 0.656 | SHP2 N-SH2 domain L43F 0.735 | SHP2 N-SH2 domain T42A 0.64 | SHP2 N-SH2 domain T52S 0.729 | [2] 0.794

B21: PCDHGA5_Y753 (peptide)
chain: AFLQTYSHEVS
active: SHP2 N-SH2 domain L43F 3.89 | SHP2 N-SH2 domain T52S 4.61
inactive: SHP2 C-SH2 domain E139D 1.3 | [1] 1.08 | SHP2 N-SH2 domain T42A 1.16 | [2] 1.31

B22: PCDHGA5_Y753_S754A (peptide)
chain: AFLQTYAHEVS
inactive: SHP2 C-SH2 domain E139D 1.02 | [1] 0.871 | SHP2 N-SH2 domain L43F 2.43 | SHP2 N-SH2 domain T42A 0.923 | SHP2 N-SH2 domain T52S 2.48 | [2] 0.917

B23: PDCD6IP_Y727 (peptide)
chain: IPTPAYQSSPA
inactive: SHP2 C-SH2 domain E139D 0.84 | [1] 0.818 | SHP2 N-SH2 domain L43F 0.763 | SHP2 N-SH2 domain T42A 0.656 | SHP2 N-SH2 domain T52S 0.751 | [2] 0.805

B24: PDE10A_Y300_L303P (peptide)
chain: KNKELYSDPFD
inactive: SHP2 C-SH2 domain E139D 0.702 | [1] 0.643 | SHP2 N-SH2 domain L43F 0.552 | SHP2 N-SH2 domain T42A 0.475 | SHP2 N-SH2 domain T52S 0.705 | [2] 0.664

B25: PDE4DIP_Y45 (peptide)
chain: SREDIYKRNIE
inactive: SHP2 C-SH2 domain E139D 0.602 | [1] 0.504 | SHP2 N-SH2 domain L43F 0.614 | SHP2 N-SH2 domain T42A 0.47 | SHP2 N-SH2 domain T52S 0.591 | [2] 0.742

B26: PDE4DIP_Y45_I49T (peptide)
chain: SREDIYKRNTE
inactive: SHP2 C-SH2 domain E139D 0.783 | [1] 0.785 | SHP2 N-SH2 domain L43F 0.766 | SHP2 N-SH2 domain T42A 0.702 | SHP2 N-SH2 domain T52S 0.607 | [2] 0.871

B27: PDE6A_Y275 (peptide)
chain: LNCDRYSVGLL
inactive: SHP2 C-SH2 domain E139D 0.839 | [1] 0.879 | SHP2 N-SH2 domain L43F 0.807 | SHP2 N-SH2 domain T42A 0.677 | SHP2 N-SH2 domain T52S 0.782 | [2] 0.978

B28: PDE6A_Y275_V277A (peptide)
chain: LNCDRYSAGLL
inactive: SHP2 C-SH2 domain E139D 0.821 | [1] 0.823 | SHP2 N-SH2 domain L43F 0.626 | SHP2 N-SH2 domain T42A 0.742 | SHP2 N-SH2 domain T52S 0.682 | [2] 0.697

B29: PDE6B_Y212 (peptide)
chain: DVFLKYLNFAT
active: SHP2 N-SH2 domain T42A 4.59
inactive: SHP2 C-SH2 domain E139D 2.13 | [1] 1.94 | SHP2 N-SH2 domain L43F 2.23 | SHP2 N-SH2 domain T52S 3 | [2] 2.22

B30: PDE6B_Y212_Y212H (peptide)
chain: DVFLKHLNFAT
inactive: SHP2 C-SH2 domain E139D 0.912 | [1] 0.845 | SHP2 N-SH2 domain L43F 0.73 | SHP2 N-SH2 domain T42A 0.854 | SHP2 N-SH2 domain T52S 0.888 | [2] 0.906

B31: PDE6B_Y219_Y219H_YF (peptide)
chain: NFATLHLKIFH
inactive: SHP2 C-SH2 domain E139D 2.81 | [1] 3.15 | SHP2 N-SH2 domain L43F 2.96 | SHP2 N-SH2 domain T42A 2.92 | SHP2 N-SH2 domain T52S 3.17 | [2] 2.82

B32: PDE6B_Y227 (peptide)
chain: IYHLSYLHNCE
inactive: SHP2 C-SH2 domain E139D 2.57 | [1] 2.49 | SHP2 N-SH2 domain L43F 2.11 | SHP2 N-SH2 domain T42A 2.12 | SHP2 N-SH2 domain T52S 2.22 | [2] 2.59

B33: PDE6B_Y227_L228H_YF (peptide)
chain: IFHLSYHHNCE
inactive: SHP2 C-SH2 domain E139D 2.95 | [1] 2.52 | SHP2 N-SH2 domain L43F 2.43 | SHP2 N-SH2 domain T42A 2.34 | SHP2 N-SH2 domain T52S 2.83 | [2] 2.92

B34: PDE6B_Y227_L228I (peptide)
chain: IYHLSYIHNCE
inactive: SHP2 C-SH2 domain E139D 2.86 | [1] 2.49 | SHP2 N-SH2 domain L43F 2.54 | SHP2 N-SH2 domain T42A 2.09 | SHP2 N-SH2 domain T52S 2.48 | [2] 2.45

B35: PDE6B_Y227_YF (peptide)
chain: IFHLSYLHNCE
inactive: SHP2 C-SH2 domain E139D 2.96 | [1] 3.04 | SHP2 N-SH2 domain L43F 3.03 | SHP2 N-SH2 domain T42A 2.43 | SHP2 N-SH2 domain T52S 2.96 | [2] 2.97

B36: PDE6B_Y556_H557Y (peptide)
chain: YRRITYYNWRH
inactive: SHP2 C-SH2 domain E139D 0.252 | [1] 0.263 | SHP2 N-SH2 domain L43F 0.22 | SHP2 N-SH2 domain T42A 0.269 | SHP2 N-SH2 domain T52S 0.254 | [2] 0.2

B37: PDE6B_Y556_H557Y_YF (peptide)
chain: FRRITYFNWRH
inactive: SHP2 C-SH2 domain E139D 0.298 | [1] 0.285 | SHP2 N-SH2 domain L43F 0.267 | SHP2 N-SH2 domain T42A 0.318 | SHP2 N-SH2 domain T52S 0.954 | [2] 0.281

Reference: the supplement of paper PMC10369915
